PubChem BioAssay AID1963576 (National Center for Advancing Translational Sciences (NCATS), 2024)
Screen size: about 46,000 compounds; about 60 (0.1%) were called active. Not shown: some 3% with an inconclusive outcome. The call rests on the fitted dose curve; in most records, active means well fitted inhibition curve with a large enough effect; inconclusive means small, poorly fitted or top-dose-only effect; inactive means no such curve, though single readings can be large or run the other way. The list shows a part of the results.

Assay: Primary qHTS assay for Inhibitors of ovarian cancer metastasis using an organotypic tumor microenvironment (TME) model. Further: nearly all actives have a fitted effect of over 65% in size.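 On activity change, negative = inhibition: plate controls were DMSO wells for no effect and tomatine positive control wells for full effect.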
Details: SKOV3ip1-GFP adhesion/invasion on 3D omental model, fluorescence; series mostly up to 45.8 µM; activity change, negative = inhibition: at the top concentration
How it was run: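 Primary human omental fibroblast/mesothelial 3D culture pre-formed 48 h. SKOV3ip1-GFP cells added with compounds (0.36-46 umol/L), incubated 2 h RT/16 h 37 C, fixed; GFP cells quantified at 488/509 nm.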

Activity change, negative = inhibition, inactive:
COC(=O)c1cc(S(=O)(=O)N2CCN(c3cccc(C)c3)C(C)C2)cn1C (configuration not stated) 4.1%, NC(=O)c1ccccc1NC(=O)c1ccc(-c2ccc(Br)cc2)o1 10%, O=C(Cn1ncc2c3ccccc3n(Cc3ccc(Cl)cc3)c2c1=O)NCc1ccccn1 -0.164%, CC(=O)c1cccc(NC(=O)Cn2nc(C)n3cccc3c2=O)c1 3.08%, CCc1ccc(-n2cnc3cc(C(=O)NCc4ccc(C)cc4)ccc32)cc1 3.1%, CCOc1ccc(C(=O)Nc2ccc3nc(SCCOc4ccccc4)sc3c2)cc1 3.69%, Cc1ccc(CSc2nnc(CCNC(=O)OC(C)(C)C)o2)cc1 -0.728%, COc1ccc(OC)c(NC(=O)CSc2nnc3ccc4ccccc4n23)c1 -2.45%, Cc1ccc(-n2ncc(C(=O)NCc3cccs3)c2C2CCN(C(=O)OC(C)(C)C)CC2)c(C)c1 6.31%, COc1ccc(NC(=O)C2=C(C)Nc3nc(SCc4ccccc4C)nn3C2c2cc(OC)c(O)c(OC)c2)cc1 (configuration not stated) -8.18%, CN(Cc1ccccc1)C(=O)Nc1ccc2c(c1)N(C)C(=O)c1ccccc1S2 5.77%, CCC(C(=O)NCc1ccccc1)n1nc(C)c2sc3ccccc3c2c1=O (configuration not stated) 22.7%, COc1ccc(NC(=O)CCn2c(=O)c3cccn3c3cccnc32)c(OC)c1 -15.9%, Cc1ccc(-c2nnc(Nc3cccc(O)c3)c3ccccc23)cc1S(=O)(=O)N1CCOCC1 -3.47%, COc1ccc(-c2noc(CC(=O)Nc3ccc(F)cc3F)n2)cc1 11.7%, CCc1ccc(NC(=O)CCn2nc(-c3ccccc3OC)c3c(C)cc(C)nc32)cc1 -24.3%, COc1ccccc1OC(C)C(=O)Nc1ccc(-c2nc3ccccc3s2)cc1 (configuration not stated) -8.68%, CCOCCCNC(=O)C(c1ccc(C)cc1)N(Cc1ccc2c(c1)OCO2)C(=O)c1ccc(NC(C)=O)cc1 (configuration not stated) 2.35%, Cc1ccc2nc(N3CCC(C(=O)N4CCN(c5cccc(Cl)c5)CC4)CC3)[nH]c2c1 3.8%, Cc1ccc(C2c3[nH]c4ccccc4c3CCN2C(=O)c2cccc(C)c2)cc1 (configuration not stated) 1.86%, c1ccc(Nc2c(-c3c[nH]c4ccccc34)nc3ccccn23)cc1 0.792%, COc1ccc(-c2cc(C(=O)OC(C)C(=O)c3ccccc3)c3cccc(Cl)c3n2)cc1 (configuration not stated) 3.91%, Cc1cccc(OCC(=O)Nc2ccc(Cl)c(-c3nc4ncccc4o3)c2)c1C 7.2%, COc1cc(C(=O)NCC(c2cccs2)S(=O)(=O)c2ccc(F)cc2)cc(OC)c1OC (configuration not stated) -1.47%, COc1cc2cc(CNc3ccc(C)cc3)c(=O)n(CC(=O)Nc3ccc(F)cc3F)c2cc1OC -23.2%, CCOc1ccccc1NC(=O)CN(C)S(=O)(=O)c1ccc2nc(C)sc2c1 -6.2%, Cc1nc(Oc2ccc(F)cc2Cl)c2oc3ccccc3c2n1 2.21%, CCC(=O)N1CCc2cc(Br)cc(S(=O)(=O)CCC(=O)NCc3ccc(Cl)cc3)c21 3.72%, COc1ccc(Br)cc1CNC(=O)c1cc2n(n1)CCCN(Cc1ccc(C)cc1)C2=O 5.59%, O=C(Nc1sc2c(c1C(=O)NCc1ccco1)CCCC2)c1cc(=O)c2ccccc2o1 0.732%, Cc1ccc(C)c(NC(=O)CN2C(=O)C(C)(C)c3ccccc32)c1 4.1%, CC(C)Oc1ccc(C(=O)N(Cc2ccco2)c2ccccn2)cc1 -1.27%, Cc1ccc(CNC(=O)CC(C)S(=O)(=O)c2cc3c(cc2C)NC(=O)CO3)cc1 (configuration not stated) 3.23%, CSC1=NC2(CCN(C(=O)NC3CCCCC3)CC2)N=C1c1ccc(C)c(C)c1 -0.89%, Fc1ccc(Nc2c3c(nc4ccccc24)CCC3)cc1 -7.2%, Cc1ccc(Sc2c(C)nn(C(C)(C)C)c2OC(=O)C(C)(C)C)cc1 -3.03%, CCc1nnc(SC(CC)C(=O)Nc2cccc(OC)c2)c2cc3oc(C)cc3n12 (configuration not stated) -3.76%, COC(=O)c1scc(-c2ccc(C)cc2)c1S(=O)(=O)N1CCN(c2cccc(OC)c2)CC1 1.15%, CCc1ccc(CN(Cc2ccco2)c2cnc(S(C)(=O)=O)nc2C(=O)Nc2ccccc2Cl)cc1 -10%, Cc1ccc(NC(=O)Nc2ccc3snnc3c2)cc1C -6.09%, O=C(NCc1ccco1)c1ccc2c(c1)N(Cc1ccc(Cl)cc1)C(=O)c1ccccc1S2=O (configuration not stated) 64.3%, Cc1c2cnn(CC(=O)NC(C)C)c(=O)c2c(C)n1Cc1ccccc1Cl 23.9%, CCN(C(=O)CSc1nc2ccccc2n1Cc1cc(C)ccc1C)c1ccccc1 -18.5%, CCC(Sc1nncn2c1cc1occc12)C(=O)Nc1ccc(C)c(Cl)c1 (configuration not stated) 4.17%, Cc1ccc(C(=O)NCC(c2cccs2)S(=O)(=O)c2cccs2)cc1 (configuration not stated) -0.94%, COc1cc(C(=O)Nc2ccc3nc(SCc4ccccc4)sc3c2)cc(OC)c1OC -19.9%, CCOC(=O)N1CCc2c(sc3c2c(=O)n(-c2ccc(CC)cc2)c(=O)n3CC(=O)c2ccc(F)cc2)C1 5.39%, Cc1c2cnn(CC(=O)Nc3cccc(C(F)(F)F)c3)c(=O)c2c(C)n1Cc1ccccc1Cl 15.6%

outcome, inactive:
O=C(CSc1nnc(-c2ccccc2)o1)c1cccc([N+](=O)[O-])c1, CCOC(=O)c1c(C)[nH]c(CCC(=O)NCc2ccc(CC)cc2)c1C, CCN(CC)CCCNC(=O)c1ccc2c(=O)n(CCc3ccccc3)c(=O)[nH]c2c1, O=C(NCc1ccccc1Cl)c1ccc(CSCc2ccccc2Cl)o1, CCC(Sc1nc2cc(OC)c(OC)cc2c2nc(-c3ccccc3)nn12)C(=O)Nc1cccc(C)c1 (configuration not stated), CCC(C)NC(=O)c1ccccc1NC(=O)CN1C(=O)c2cccc3cccc1c23 (configuration not stated), CC(C)Nc1ccc(-c2nc(-c3ccco3)no2)cc1[N+](=O)[O-], Cc1cccc(NC(=O)c2nnn(CC(=O)Nc3ccc(C(C)C)cc3)c2N)c1C, CC(C)NC(=O)CN1C(=O)COc2ccc(S(=O)(=O)N3CCCCCC3)cc21, CCOC(=O)c1c(C)[nH]c(CCC(=O)Nc2ccc(C)c(F)c2)c1C, Cc1ccc(NC(=O)CCc2nnc3n(C)c(=O)c4sccc4n23)cc1C, CCN(c1ccccc1)c1nnc(NC(=O)Nc2ccccc2F)s1, CCOC(=O)c1ccc(NC(=O)CC2C(=O)OCCN2CC)cc1 (configuration not stated), COc1ccccc1/C=C/c1nc(C#N)c(N(C)C)o1
